Test results reported in the supplement of paper PMC3334620.
Whole data set: some 33,000 sequences, median “E-score (-0.5 to 0.5)” near -0.054, cut for the highest 2% near 0.39. The list shows a part of the results.

What follows are sequences tested against Ylr278c (UniProt Q05854) (assay: PBM E-score (8-mer binding enrichment) (E-score (-0.5 to 0.5)); higher = stronger / more preferred TF binding; most listed sequences are background and not binding sites). Conditions: protein concentration: 200 nM; construct: GST-DNA-binding domain.
Method in brief: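 PURExpress in vitro transcription/translation supplied GST-tagged yeast transcription factors, either full-length or DNA-binding domain. Applied at about 100-200 nM to universal all-10-mer Agilent arrays double-stranded by primer extension, the bound protein was detected with fluorescent anti-GST. E-scores, modified Wilcoxon-Mann-Whitney statistics, were given by the Universal PBM Analysis Suite to ungapped eight-base words pooled with their reverse complements after masliner normalisation.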

Sequence | PBM E-score
GTTTTTTA | -0.0343
CCGGTAGG | 0.219
GCTTCTCA | -0.0943
CACTCGGC | 0.246
AGTCTTTC | -0.019
AACTACTC | 0.13
CCTCGGGA | 0.119
AACTTTAC | 0.0269
ATGCACCA | -0.203
AAGCGAAT | 0.0335
GGATACCC | 0.084
CGCGTCCA | 0.0142
CGCCTTTC | 0.0647
ATAAATGA | -0.144
TAATTGAA | -0.0653
AGACGAAA | 0.112
CCAGCGCC | -0.0308
AATCCCAT | -0.149
CGAGATCG | 0.0617
GATCCCGC | 0.232
CCGAGTCC | 0.314
AAGATGCA | -0.0953
ACGGTACC | 0.122
ATGTACAA | 0.026
ACAATATA | 0.109

Sequence | PBM E-score
CTATGCAA | -0.242
CTCCAGTA | -0.00465
CGCTCCTC | -0.0652
TAACCAGA | -0.187
ACTGCCAT | -0.153
CGTTCCGA | 0.288
ACCCTACG | -0.0504
AGTCATAC | -0.114
ACCGGGAT | 0.388
GCACATCC | 0.0515
GTCGCAAA | 0.0145
ATCCTCTC | -0.106
GGGAGGCA | -0.0852
ACAAAGAT | -0.217
AGGCTGTA | -0.146
CGTACCCC | 0.11
ACATTATC | 0.13
AATTCCTA | -0.0875
CTAGGCAG | -0.0962
CCACAACA | -0.225
ACACCGGT | 0.324
ACATGGAA | -0.0054
GAGTCACA | -0.121
CGACCAGC | 0.034
TCCTACGA | -0.178

Sequence | PBM E-score
TTCCCGAA | 0.294
AAGCTCTC | -0.0008
AGTGGGGA | 0.0123
ATATTTTG | 0.0483
ACTGTGTA | -0.0865
AGTTACTC | -0.0438
ACGCTATA | -0.255
ATATATAA | 0.011
AAATTGAC | 0.034
CCTTTTAG | -0.317
CCCGTATA | 0.145
ATGTCTCA | -0.171
ATGCGAGC | -0.0746
ACTCTGCT | -0.102
CCACACTC | 0.0435
GCACGTAC | -0.141
ACACTTTC | 0.104
ATACAAAA | -0.0304
GCTGTGTA | -0.165
CTCTAAGC | 0.0461
ACAAAGAC | -0.0867
CATAGGGA | -0.262
CCCCCTCA | -0.336
CCGAATAG | 0.245
CATCAGTC | 0.00449

Sequence | PBM E-score
ACCTAGGC | -0.109
ACCCCAAC | -0.026
ACGCAGTG | -0.119
ACGTGGAT | -0.233
GAACAAAA | -0.02
TCTTTGAA | -0.132
CACTATCA | -0.165
ATTTCTAG | 0.144
ACCCAGGA | -0.189
CCCACATA | -0.0575
CAGTTCAA | -0.0886
AACCAAAA | 0.0239
CGCTCCGC | 0.317
CCAGCACA | -0.152
TAGGCTAA | -0.152
GTAGTGAA | -0.0691
CACGCGAA | -0.142
CACAAGTG | -0.271
AATCTGCA | -0.262
ATCCTTTA | -0.00727
ATTTATGA | -0.0656
ATGATCGG | 0.257
ACGGTTAA | -0.0441
GTGTATGA | -0.102
AGAGGTAT | -0.0593

Sequence | PBM E-score
AAATTATC | 0.0288
CGTTTGAC | -0.0124
GACGTAAC | -0.0409
GTGTAGGA | 0.0478
AGATTGAC | -0.123
ACAGGCGC | -0.0621
AGCAGAAG | -0.00493
GAAGGATA | 0.0194
GAGCGCAA | -0.129
TCGTATCA | -0.111
GCGGGTTA | 0.213
CGAGTCAC | -0.0588
CCGCGAGA | 0.145
AGTCTTAA | -0.273
CCATAACA | -0.11
ATTTCTAA | 0.00098
CCCAGAAC | -0.136
AGCGCGAC | 0.0449
ATTGGGTC | 0.109
ACCGCTCG | -0.00096
CTAGCTAA | -0.128
GTTGAGTA | -0.0603
AATCCTAC | -0.0493
CATCAAGC | -0.0328
AGTCCAGC | -0.0737

Sequence | PBM E-score
ATTCGGCA | 0.226
CGATTCCA | 0.056
AACATTCC | 0.239
AACCTTTG | -0.0514
GGCCGCCC | 0.0938
GGTTAACC | 0.0591
AAGCGTCA | -0.245
ATGAAACC | -0.0249
CGAGGTTC | 0.0751
AGGTTACC | 0.138
CGGAGTTC | 0.494
AATTGTGA | -0.247
AGTCCCAA | -0.0186
TGTGAGAA | 0.0311
TCCACCCA | -0.258
GAGAGTCA | -0.153
ACGGGATC | 0.109
TAAGTCTA | -0.137
GCACTGAA | -0.106
ATCAGCTC | -0.0203
ATGTAGTA | 0.0501
CGGCCCCC | 0.173
TGTTGAAA | -0.0138
CTTTAGGA | -0.223
CTAACCCA | -0.13

Sequence | PBM E-score
GGGATTTA | 0.287
AAGCTGTG | -0.176
ATGAGCTA | -0.15
ACCATCAT | -0.16
GTTAAATA | 0.0524
CAGCACGA | -0.171
GAACGGCA | 0.17
GCCGCTAC | 0.259
AGTATGTG | -0.0453
CACGTAAC | -0.0939
ACCTTACT | -0.0387
TAAGGCGA | -0.0928
GATGGATA | -0.0056
AATGCGAA | 0.0719
GTACGTAA | -0.263
AACAGAGT | -0.114
CCCAAGAA | -0.0842
ATAACTCG | 0.0232
GTTATAAC | -0.0431
GCCATAAA | -0.0598
AATCCAAT | -0.0416
GGTAAACC | 0.167
